Laboratory results reported in PMC9911399, “Two distinct binding modes provide the RNA-binding protein RbFox with extraordinary sequence specificity”.
Where a chain is given by its changes, count along the chain named. This is one part of the list.

T1: RBFOX1 RRM RbFoxmut (Fox-RRM*) (Homo sapiens, UniProt Q9NWB1 109-208, R118D;E147R;N151S;E152T)
T1 sequence: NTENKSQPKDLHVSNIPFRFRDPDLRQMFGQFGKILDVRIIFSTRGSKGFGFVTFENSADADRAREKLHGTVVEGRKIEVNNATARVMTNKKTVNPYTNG

B1: ACGGCCC (DNA:RNA)
RNA: GGGAGACCGGAAUUCAGAUUGUCCACGGCCCUUAAAUCCCGUCGUAGCCACCA
DNA 1: CAATCTGAATTCCGGTCTCCC
DNA 2: TGGTGGCTACGACGGGATT
B2: UUGCAAA (DNA:RNA)
RNA: B1 RNA with A25U, C26U, G28C, C29A, C30A, C31A
DNA 1: CAATCTGAATTCCGGTCTCCC
DNA 2: TGGTGGCTACGACGGGATT
B3: UGCUAUC (DNA:RNA)
RNA: B1 RNA with A25U, C26G, G27C, G28U, C29A, C30U
DNA 1: CAATCTGAATTCCGGTCTCCC
DNA 2: TGGTGGCTACGACGGGATT
B4: UCCGCAA (DNA:RNA)
RNA: B1 RNA with A25U, G27C, C30A, C31A
DNA 1: CAATCTGAATTCCGGTCTCCC
DNA 2: TGGTGGCTACGACGGGATT
B5: CUCGAGU (DNA:RNA)
RNA: B1 RNA with A25C, C26U, G27C, C29A, C30G, C31U
DNA 1: CAATCTGAATTCCGGTCTCCC
DNA 2: TGGTGGCTACGACGGGATT
B6: GCUACAC (DNA:RNA)
RNA: B1 RNA with A25G, G27U, G28A, C30A
DNA 1: CAATCTGAATTCCGGTCTCCC
DNA 2: TGGTGGCTACGACGGGATT
B7: CACGGGC (DNA:RNA)
RNA: B1 RNA with A25C, C26A, G27C, C29G, C30G
DNA 1: CAATCTGAATTCCGGTCTCCC
DNA 2: TGGTGGCTACGACGGGATT
B8: CAAUCAG (DNA:RNA)
RNA: B1 RNA with A25C, C26A, G27A, G28U, C30A, C31G
DNA 1: CAATCTGAATTCCGGTCTCCC
DNA 2: TGGTGGCTACGACGGGATT
B9: GCACUGG (DNA:RNA)
RNA: B1 RNA with A25G, G27A, G28C, C29U, C30G, C31G
DNA 1: CAATCTGAATTCCGGTCTCCC
DNA 2: TGGTGGCTACGACGGGATT
B10: UAGACUU (DNA:RNA)
RNA: B1 RNA with A25U, C26A, G28A, C30U, C31U
DNA 1: CAATCTGAATTCCGGTCTCCC
DNA 2: TGGTGGCTACGACGGGATT
B11: CUCGUGA (DNA:RNA)
RNA: B1 RNA with A25C, C26U, G27C, C29U, C30G, C31A
DNA 1: CAATCTGAATTCCGGTCTCCC
DNA 2: TGGTGGCTACGACGGGATT
B12: CGGAUAG (DNA:RNA)
RNA: B1 RNA with A25C, C26G, G28A, C29U, C30A, C31G
DNA 1: CAATCTGAATTCCGGTCTCCC
DNA 2: TGGTGGCTACGACGGGATT
B13: UGCCCAA (DNA:RNA)
RNA: B1 RNA with A25U, C26G, G27C, G28C, C30A, C31A
DNA 1: CAATCTGAATTCCGGTCTCCC
DNA 2: TGGTGGCTACGACGGGATT
B14: GCGAAUC (DNA:RNA)
RNA: B1 RNA with A25G, G28A, C29A, C30U
DNA 1: CAATCTGAATTCCGGTCTCCC
DNA 2: TGGTGGCTACGACGGGATT
B15: CCCUUCG (DNA:RNA)
RNA: B1 RNA with A25C, G27C, G28U, C29U, C31G
DNA 1: CAATCTGAATTCCGGTCTCCC
DNA 2: TGGTGGCTACGACGGGATT
B16: AGACGGG (DNA:RNA)
RNA: B1 RNA with C26G, G27A, G28C, C29G, C30G, C31G
DNA 1: CAATCTGAATTCCGGTCTCCC
DNA 2: TGGTGGCTACGACGGGATT
B17: UCUGUGA (DNA:RNA)
RNA: B1 RNA with A25U, G27U, C29U, C30G, C31A
DNA 1: CAATCTGAATTCCGGTCTCCC
DNA 2: TGGTGGCTACGACGGGATT
B18: ACUCCUG (DNA:RNA)
RNA: B1 RNA with G27U, G28C, C30U, C31G
DNA 1: CAATCTGAATTCCGGTCTCCC
DNA 2: TGGTGGCTACGACGGGATT
B19: AGGGGUU (DNA:RNA)
RNA: B1 RNA with C26G, C29G, C30U, C31U
DNA 1: CAATCTGAATTCCGGTCTCCC
DNA 2: TGGTGGCTACGACGGGATT
B20: UACACAG (DNA:RNA)
RNA: B1 RNA with A25U, C26A, G27C, G28A, C30A, C31G
DNA 1: CAATCTGAATTCCGGTCTCCC
DNA 2: TGGTGGCTACGACGGGATT
B21: UGUAUAG (DNA:RNA)
RNA: GGGAGACCGGAAUUCAGAUUGUCCUGUAUAGUUAAAUCCCGUCGUAGCCACCA
DNA 1: CAATCTGAATTCCGGTCTCCC
DNA 2: TGGTGGCTACGACGGGATT
B22: AUUGCGU (DNA:RNA)
RNA: B1 RNA with C26U, G27U, C30G, C31U
DNA 1: CAATCTGAATTCCGGTCTCCC
DNA 2: TGGTGGCTACGACGGGATT
B23: CUCCUCA (DNA:RNA)
RNA: B1 RNA with A25C, C26U, G27C, G28C, C29U, C31A
DNA 1: CAATCTGAATTCCGGTCTCCC
DNA 2: TGGTGGCTACGACGGGATT
B24: UGGGUAC (DNA:RNA)
RNA: B21 RNA with U27G, A28G, G31C
DNA 1: CAATCTGAATTCCGGTCTCCC
DNA 2: TGGTGGCTACGACGGGATT
B25: CAAAAGA (DNA:RNA)
RNA: B21 RNA with U25C, G26A, U27A, U29A, A30G, G31A
DNA 1: CAATCTGAATTCCGGTCTCCC
DNA 2: TGGTGGCTACGACGGGATT
B26: ACUACUA (DNA:RNA)
RNA: B1 RNA with G27U, G28A, C30U, C31A
DNA 1: CAATCTGAATTCCGGTCTCCC
DNA 2: TGGTGGCTACGACGGGATT
B27: CUGCAGA (DNA:RNA)
RNA: B1 RNA with A25C, C26U, G28C, C29A, C30G, C31A
DNA 1: CAATCTGAATTCCGGTCTCCC
DNA 2: TGGTGGCTACGACGGGATT
B28: CUUCUUC (DNA:RNA)
RNA: B21 RNA with U25C, G26U, A28C, A30U, G31C
DNA 1: CAATCTGAATTCCGGTCTCCC
DNA 2: TGGTGGCTACGACGGGATT
B29: GUGCCGC (DNA:RNA)
RNA: B1 RNA with A25G, C26U, G28C, C30G
DNA 1: CAATCTGAATTCCGGTCTCCC
DNA 2: TGGTGGCTACGACGGGATT
B30: AACCCUU (DNA:RNA)
RNA: B1 RNA with C26A, G27C, G28C, C30U, C31U
DNA 1: CAATCTGAATTCCGGTCTCCC
DNA 2: TGGTGGCTACGACGGGATT
B31: GCCAUUG (DNA:RNA)
RNA: B21 RNA with U25G, G26C, U27C, A30U
DNA 1: CAATCTGAATTCCGGTCTCCC
DNA 2: TGGTGGCTACGACGGGATT

biological target: T1, RBFOX1 RRM RbFoxmut (Fox-RRM*); experiment: EMSA; HiTS-Eq, 1 nM pool, 10 min; buffer printed only for the single-RNA assays: 10 mM Tris pH 7.5, 150 mM NaCl, 3.4 mM EDTA, 0.001% NP-40, 30 C; conditions: tags: His6 N-terminal (pET28a); label: 5' 32P
In short: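 A pool of RNA with 7 randomized nucleotides, 5′-radiolabelled and with DNA-annealed flanks, was equilibrated at 1 nM for 10 min in 50 µL with purified RbFox RRM, wild type or mutant, across increasing protein concentrations. Free RNA was separated by 8% native PAGE, excised, reverse-transcribed, barcoded by PCR and sequenced. Relative association constants were obtained from read-count changes of each RNA species versus the control reaction and normalised to the cognate motif.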

Binder | binding signal
B1 | 0.0655 KA relative to UGCAUGU
B2 | 0.0864 KA relative to UGCAUGU
B3 | 0.255 KA relative to UGCAUGU
B4 | 0.0878 KA relative to UGCAUGU
B5 | 0.121 KA relative to UGCAUGU
B6 | 0.121 KA relative to UGCAUGU
B7 | 0.09 KA relative to UGCAUGU
B8 | 0.0574 KA relative to UGCAUGU
B9 | 0.0976 KA relative to UGCAUGU
B10 | 0.0552 KA relative to UGCAUGU
B11 | 0.125 KA relative to UGCAUGU
B12 | 0.0992 KA relative to UGCAUGU
B13 | 0.0646 KA relative to UGCAUGU
B14 | 0.385 KA relative to UGCAUGU
B15 | 0.092 KA relative to UGCAUGU
B16 | 0.103 KA relative to UGCAUGU

Binder | binding signal
B17 | 0.104 KA relative to UGCAUGU
B18 | 0.0708 KA relative to UGCAUGU
B19 | 0.0984 KA relative to UGCAUGU
B20 | 0.0626 KA relative to UGCAUGU
B21 | 0.138 KA relative to UGCAUGU
B22 | 0.16 KA relative to UGCAUGU
B23 | 0.0817 KA relative to UGCAUGU
B24 | 0.112 KA relative to UGCAUGU
B25 | 0.0824 KA relative to UGCAUGU
B26 | 0.152 KA relative to UGCAUGU
B27 | 0.136 KA relative to UGCAUGU
B28 | 0.0471 KA relative to UGCAUGU
B29 | 0.101 KA relative to UGCAUGU
B30 | 0.0783 KA relative to UGCAUGU
B31 | 0.115 KA relative to UGCAUGU
